Assay results: PubChem BioAssay AID504832 (National Center for Advancing Translational Sciences (NCATS), 2011)
In all, about 310,000 compounds went through this assay and about 18,000 (5.8%) were called active. Inconclusive results, whose numbers are uncertain, are shown with a selection of clear calls. Calls come from the whole dose curve; as a rule, active = well fitted inhibition curve with a large enough effect; inconclusive = small, poorly fitted or top-dose-only effect, or another doubt; inactive = no such curve, though single readings can be large or run the other way. No potency is given beside an inconclusive call; the fits are too rough.
% is set by controls: 0 for no effect and ±100 for the full control effect; potency is the fitted concentration of half-maximal effect; tags give direction and shape of the fitted curve.

Test: Primary qHTS for delayed death inhibitors of the malarial parasite plastid, 48 hour incubation
Conditions: P. falciparum luciferase growth in erythrocytes; series mostly up to 28.7 µM; activity change, negative = inhibition: at the top concentration
In short: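 Erythrocytes infected with P. falciparum carrying an integrated firefly luciferase reporter (2% hematocrit, 0.1% parasitemia final) were exposed to compounds in RPMI 1640 with 0.5% Albumax at 37 C, 5% CO2. Growth inhibition was scored as reduced luminescence.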
With `Cc1nc(Cl)c(C(=O)NCCC(C)C)c(C)c1[N+](=O)[O-]` the Potency was inconclusive [inhibitor, partial curve, poor fit].
In the case of `CCCCn1c(N)c(N(CCOC)C(=O)CCNC(=O)c2ccc(Cl)cc2)c(=O)[nH]c1=O`, the Potency is reported as inconclusive [inhibitor, single point].
For `S=c1nc(Cc2ccc(Cl)cc2)[nH]c2ccccc12`, the Potency was inconclusive [inhibitor, single point].
For `C=C1CC[C@@]23CC[C@]4(C)[C@@](OC2=O)([C@@H]3C1)[C@H]1O[C@H]1C1[C@@]2(C)CC[C@H](O)C(C)(C)C2CC[C@]14C` (stereo partly drawn), the Potency was inconclusive [inhibitor, partial curve, poor fit].
For `O=C(CSc1nnc(Cc2cccs2)n1Cc1ccco1)Nc1ccc(Br)cc1`, the Potency was inconclusive [inhibitor, single point].
With `Cc1cc(-c2ccc(C)c(S(=O)(=O)NCCCN3CCCCCC3)c2)on1` the Potency was active: 14.7 µM.
With `CCN(CC(=O)Nc1cccc(OC)c1)CC(=O)Nc1ccccc1C` the “activity change, negative = inhibition” value was inactive: -28.1%.
In the case of `CCn1nc(-c2cccs2)nc2c(=O)n(C)c(=O)nc1-2`, the “activity change, negative = inhibition” value is reported as inactive: -9.84%.
For `COC(=O)c1ccccc1N(C)S(=O)(=O)c1cc2c3c(c1)CCC(=O)N3CCC2`, the Potency was inconclusive [inhibitor, partial curve, poor fit].
In the case of `O=C(COc1ccc(Br)cc1)Nc1ccc(N2CCOCC2)cc1N1CCOCC1`, the Potency is reported as inconclusive [inhibitor, partial curve, poor fit].
In the case of `O=C1C(Cl)=C(N2CCOCC2)C(=O)N1c1ccc(Br)cc1`, the Potency is reported as inconclusive [inhibitor, single point].
With `C=CCC1(CC=C)CCCN1Cc1nc(COc2ccccc2)no1` the Potency was inconclusive [inhibitor, partial curve, poor fit].
In the case of `CCOC(=O)C1CCCN(S(=O)(=O)c2cc(Br)cc3c2N(C(=O)C2CC2)CC3)C1` (stereo not drawn), the Potency is reported as active: 3.29 µM.
In the case of `Cn1cc(SCC(=O)NC2CCCCC2)c2ccccc21`, the “activity change, negative = inhibition” value is reported as inactive: -0.917%.
In the case of `COC(=O)C1=CN(Cc2cccs2)C=C(C(=O)OC)C1c1ccc(OC)cc1OC`, the Potency is reported as inconclusive [inhibitor, single point].
In the case of `N#C/C(=N\Nc1ccc(Cl)cc1)C(=O)c1ccsc1`, the “activity change, negative = inhibition” value is reported as inactive: 45.3%.
With `CCCCSc1nc2c(c(=O)[nH]c(=O)n2C)n1CCc1ccccc1` the Potency was inconclusive [inhibitor, single point].
With `COc1ccc(OC)c(C2=Nn3c(nnc3-c3cc(OC)c(OC)c(OC)c3)SC2)c1` the Potency was active: 6.57 µM.
For `COc1cc(/C=N/NC(=O)CSc2ccccn2)ccc1O`, the “activity change, negative = inhibition” value was inactive: -1.8%.
With `COc1ccc2[nH]c(=O)c(CN(Cc3ccco3)Cc3nnnn3Cc3ccccc3)cc2c1` the Potency was inconclusive [inhibitor, full curve].
In the case of `O=C(NNC(=S)NC(=O)c1cccnc1)c1ccccc1`, the Potency is reported as inconclusive [inhibitor, single point].
For `N#CC1=C(N)Oc2n[nH]c(-c3cccs3)c2C1c1cccs1` (stereo not drawn), the Potency was inconclusive [inhibitor, partial curve, poor fit].
In the case of `COC(=O)c1cccc(S(=O)(=O)N2CCC(NC(=O)NC34CC5CC(CC(C5)C3)C4)CC2)c1`, the “activity change, negative = inhibition” value is reported as inactive: -12.6%.
In the case of `COc1ccc(N/C=C/C(=O)c2sc(-c3ccccc3)nc2C)cc1`, the “activity change, negative = inhibition” value is reported as inactive: 8.73%.
With `CC(=O)c1c(C)[nH]c(C(=O)CSc2nc3ccccc3c(=O)n2CCCO)c1C` the Potency was inconclusive [inhibitor, single point].
For `O=Cc1ccc(-c2ccc([N+](=O)[O-])cc2Cl)o1`, the “activity change, negative = inhibition” value was inactive: 2.77%.
In the case of `CN(C)CC(C)(C)CNC(=O)C1CCN(CCCc2ccccc2)CC1`, the Potency is reported as inconclusive [inhibitor, partial curve, poor fit].
With `O=C(Nc1cc(C(F)(F)F)ccc1N1CCCCC1)c1ccc(Br)o1` the Potency was inconclusive [inhibitor, partial curve, poor fit].
With `CCN(CC)c1ccc(/C=N/NS(=O)(=O)c2ccc(CNC(C)=O)cc2)cc1` the “activity change, negative = inhibition” value was inactive: 29.2%.
In the case of `Cc1ccc(-c2nc(CN(C)Cc3cccc4cnccc34)c(C)o2)s1`, the Potency is reported as inconclusive [inhibitor, partial curve].
In the case of `O=c1oc2ccccc2c(N2CCOCC2)c1[N+](=O)[O-]`, the “activity change, negative = inhibition” value is reported as inactive: 16.8%.
With `COc1ccccc1NS(=O)(=O)c1cc(NC(=O)CC(C)(C)C)ccc1N1CCOCC1` the Potency was inconclusive [inhibitor, partial curve].
In the case of `CCOC(=O)C1CN(c2cc3c(cc2F)c(=O)c(C(=O)O)cn3CC)OC1C(=O)OCC` (stereo not drawn), the Potency is reported as inconclusive [inhibitor, partial curve, poor fit].
For `CCCCN(C(=O)c1cc(-c2ccco2)nc2ccccc12)c1c(N)n(CCC)c(=O)[nH]c1=O`, the Potency was inconclusive [inhibitor, partial curve].
With `CCOC(=O)c1c(-c2ccc(OC)cc2)csc1NC(=O)CNCc1ccco1` the Potency was inconclusive [inhibitor, partial curve, poor fit].
With `Cc1cc(C)cc(NC(=O)Cn2nnc(C(=O)NCc3ccccc3Cl)c2N)c1` the Potency was inconclusive [inhibitor, single point].
With `Cn1c(=O)n(C)c2cc(CNc3ccc(N4CCOCC4)c(C(=O)O)c3)ccc21` the Potency was inconclusive [inhibitor, single point].
In the case of `COc1ccc(/C=C/C(=O)c2ccc(NC3=NCCCS3)cc2)cc1OC`, the Potency is reported as inconclusive [inhibitor, partial curve, poor fit].
For `COc1ccc(N2CCN(c3nc4ccccn4c(=O)c3/C=C(\C#N)S(=O)(=O)c3ccccc3)CC2)cc1`, the “activity change, negative = inhibition” value was inactive: -26.8%.
For `CN(C)CCCNc1oc(/C=C/c2cccs2)nc1S(=O)(=O)c1ccccc1`, the Potency was inconclusive [inhibitor, single point].
With `CCN(CC)CCNC(=O)c1ccc(Sc2ccc(Cl)cc2)c(NC(C)=O)c1` the Potency was inconclusive [inhibitor, partial curve].
In the case of `COc1ccc(N(C)S(=O)(=O)c2ccc3c(c2)NC(=O)CC(=O)N3)c(OC)c1`, the “activity change, negative = inhibition” value is reported as inactive: 26.5%.
With `CC1(C)Cc2c(C#N)c(NCC3CCCO3)nc(-c3ccco3)c2CO1` (stereo not drawn) the Potency was inconclusive [inhibitor, single point].
With `CN1CCC[C@@H]1CCO[C@](C)(c1ccccc1)c1ccc(Cl)cc1` the Potency was active: 12 µM.
With `CCOC(=O)C(c1ccccc1)C(Nc1cc(C(F)(F)F)cc(C(F)(F)F)c1)c1ccccn1` (stereo not drawn) the Potency was inconclusive [inhibitor, single point].
In the case of `COc1ccc(/C=C/c2cc(C(=O)O)c3ccccc3n2)cc1`, the Potency is reported as inconclusive [inhibitor, single point].
In the case of `COc1ccc(NC(=O)c2oc3ccccc3c2NC(=O)C(C)(C)C)cc1`, the Potency is reported as inconclusive [inhibitor, single point].
In the case of `COCC1CCCCN1C(=O)c1ccc2nc(Cc3ccc(OC)c(OC)c3)oc2c1` (stereo not drawn), the Potency is reported as inconclusive [inhibitor, single point].
With `NC(=O)C(c1ccccc1)c1ccc(C(=O)c2ccccc2)cc1` (stereo not drawn) the “activity change, negative = inhibition” value was inactive: 16.9%.
In the case of `Cc1ccc(C)c(S(=O)(=O)Nc2ccc(C(=O)N3CCCCC3)cc2)c1`, the “activity change, negative = inhibition” value is reported as inactive: 11.6%.
For `Cc1c(C(=O)N2CCCCC2)c(S(=O)(=O)N2CCc3ccccc32)c(C)n1C`, the Potency was inconclusive [inhibitor, single point].
For `COc1ccccc1Cn1c(=O)c2ccccc2n2c(SCc3csc(C)n3)nnc12`, the Potency was inconclusive [inhibitor, single point].
For `Cc1ccc(OCCNS(=O)(=O)c2ccc(N3CCCC3=O)cc2)cc1C`, the Potency was inconclusive [inhibitor, partial curve, poor fit].
In the case of `CS(=O)(=O)N(Cc1ccc(Cl)cc1)c1ccc(C(=O)N/N=C/c2cc3ccccc3nc2Cl)cc1`, the “activity change, negative = inhibition” value is reported as inactive: 10.1%.
In the case of `Cc1cccc(NC(=S)NCC(c2cccnc2)N(C)C)c1C` (stereo not drawn), the “activity change, negative = inhibition” value is reported as inactive: 21.7%.
For `CN(Cc1cn(C)nc1-c1ccccc1F)CC1CCCCO1` (stereo not drawn), the “activity change, negative = inhibition” value was inactive: 34.5%.
With `CCN(Cc1ccccc1)C1CCN(Cc2ccccc2)CC1` the Potency was inconclusive [inhibitor, partial curve, poor fit].
With `C=CC(C)(O)CCCC(C)CCCC(C)CCCC(C)C` (stereo not drawn) the “activity change, negative = inhibition” value was inactive: 14.2%.
With `CC(C)(C)c1ccc(/C=C/C(=O)Nc2nncs2)cc1` the “activity change, negative = inhibition” value was inactive: 291%.
In the case of `COc1cc(NC(=O)COC(=O)c2cnc(C)cn2)c(C)cc1[N+](=O)[O-]`, the Potency is reported as inconclusive [inhibitor, partial curve, poor fit].
For `O=C(Nc1cc(F)ccc1F)c1ccc(-n2cncn2)c([N+](=O)[O-])c1`, the “activity change, negative = inhibition” value was inactive: 11.8%.
In the case of `Cc1ccccc1-n1ccnc1SCC(=O)NCc1ccco1`, the “activity change, negative = inhibition” value is reported as inactive: 18%.
In the case of `CCOc1ccccc1C(=O)Nc1cc(Cl)ccc1O`, the Potency is reported as active: 3.29 µM.
With `N#C/C(=C\c1cc([N+](=O)[O-])c(N2CCOCC2)cc1N1CCOCC1)c1nc2ccccc2[nH]1` the Potency was inconclusive [inhibitor, single point].
With `Cc1ccnc2nc(C(=O)Nc3nnc(-c4ccc(Cl)cc4)o3)nn12` the “activity change, negative = inhibition” value was inactive: 0.679%.
In the case of `COc1ccc(-c2nc(N3CCN(C)CC3)sc2-c2ccc(OC)cc2)cc1`, the Potency is reported as inconclusive [inhibitor, single point].
In the case of `CCOC(=O)N1CCc2c(sc(NC(=O)C3COc4ccccc4O3)c2C(N)=O)C1` (stereo not drawn), the Potency is reported as inconclusive [inhibitor, single point].
With `COC(=O)Cc1c(C)c2ccc(OCC(=O)N3CCC(C)CC3)c(C)c2oc1=O` the Potency was inconclusive [inhibitor, partial curve].
